# From the RNAGym collection of RNA variant scans (doi:10.1093/nar/gkz1192)
# Read counts are not given, so values of variants with three or more changes are uncertain.
# B1: CPEB3 Ribozyme (parent)
# chain: UAACAGGGGGCCACAGCAGAAGCGUUCACGUCGCAGCCCCUGUCAGAUUCUGGUGAAUCUGCGAAUUCUGCUGUAUAUCUC
# Variants of: B1
# Assay: self-cleavage, relative activity (ratio to wild type); higher = more cleavage; in vitro, sequencing
# Method in brief: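 CPEB3 self-cleaving ribozyme mutant libraries were made by rounds of error-prone PCR, barcoded, and transcribed in vitro with T7 RNA polymerase for 5 hours at 37°C. Cleavage occurred during transcription and a 15 min DNase I step before EDTA stop. RNAs were reverse transcribed with template switching and Illumina-sequenced, with DNA sequencing mapping barcodes to variants. Relative activity is the variant's cleaved/total read fraction divided by wild type's (minimum 5 reads), averaged across three batches.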
row,Variant,self-cleavage
1,UAACAGGGGGCCACAGCAGAAGCGUUCACGUCGCGGCCCCUGUCAGAUUCUGGUGUAUCUGCGAGUUCCGCAGUAUAUCUC [A35G A56U A65G U69C U72A],0.79
2,UAACAGGGGGCCACAGCAGAAGCGUUCACGUCGCGGCCCCUGUCAGAUUCUGGUGGAUCUGCGAAUUCUGCUCUAUAUCUC [A35G A56G G73C],1.25
3,UAACAGGGGGCCACAGCAGAAGCGUUCACGUCGCGGCCCCUGUCAGAUUCUGGUGAUUCUGCGAAUUCUGCUGUAUACCUC [A35G A57U U78C],1.22
4,UAACAGGGGGCCACAGCAGAAGCGUUCACGUCGCGGCCCCUGUCAGAUUCUGGUGAGUCUGCGUAUUCUGCUGUAUAUCUC [A35G A57G A64U],0.99
5,UAACAGGGGGCCACAGCAGAAGCGUUCACGUCGCGGCCCCUGUCAGAUUCUGGUGUAUAUGCGAAUUCUGCUGUAUAUCUC [A35G A56U C59A],0.54
6,UAACAGGGGGCCACAGCAGAAGCGUUCACGUCGCGGCCCCUGUCAGAUUCUGGUGGAUCUGAGAAUUCUGCUGUAUAUCUC [A35G A56G C62A],0.26
7,UAACAGGGGGCCACAGCAGAAGCGUUCACGUCGCGGCCCCUGUCAGAUUCUGGUGUAUCAGCGAAUUCUGCUGUAAAUCUC [A35G A56U U60A U76A],0.78
8,UAACAGGGGGCCACAGCAGAAGCGUUCACGUCGCGGCCCCUGUCAGUUUCCGGUGAAUCUGCGAAUUCUGCUGUAUAUCUC [A35G A47U U51C],0.94
9,UAACAGGGGGCCACAGCAGAAGCGUUCACGUCGCGGCCCCUGUCAGGUUCUGGUGAAUCUGCGAAUUCUGCUGCAUAUCUC [A35G A47G U74C],1.4
10,UAACAGGGGGCCACAGCAGAAGCGUUCACGUCGCGGCCCCUGUCAGAUUCUGGUGAAUCUGCGCAUUCUGCUGGAUAUCUC [A35G A64C U74G],1.1
11,UAACAGGGGGCCACAGCAGAAGCGUUCACGUCGCGGCCCCUGUCAGGUUCUGGCGAAUCUGCGAAUUCUGCUGUAUAUCUC [A35G A47G U54C],1.29
12,UAACAGGGGGCCACAGCAGAAGCGUUCACGUCGCGGCCCCUGUCAGAUUCUGGUGGAUCAGCGAAUUCUGCUGCAUACCUC [A35G A56G U60A U74C U78C],1.19
13,UAACAGGGGGCCACAGCAGAAGCGUUCACGUCGCGGCCCCUGUCAGAUUCUGGUGUAUCUGCGAAUUCCGCUGUAUAUCUC [A35G A56U U69C],0.7
14,UAACAGGGGGCCACAGCAGAAGCGUUCACGUCGCGGCCCCUGUCAGAUUCUGGUGUAUCUGCGAAUUCAGCUGUAUAUCUC [A35G A56U U69A],0.96
15,UAACAGGGGGCCACAGCAGAAGCGUUCACGUCGCGGCCCCUGUCAGAUUCUGGUGGAUCUGCGAAUUCUGCUGUAUAUCAC [A35G A56G U80A],1.33
16,UAACAGGGGGCCACAGCAGAAGCGUUCACGUCGCGGCCCCUGUCAGAUUCUGGUGGAUCUGCGAAUUCUGCUGUAUAUCCC [A35G A56G U80C],1.37
17,UAACAGGGGGCCACAGCAGAAGCGUUCACGUCGCGGCCCCUGUCAGAUUCUGGUGAAUCUGCGGAUUCAGCUGUAUAUCCC [A35G A64G U69A U80C],0.58

row,Variant,self-cleavage
1,UAACAGGGGGCCACAGCAGAAGCGUUCACGUCGCGGCCCCUGUCAGAUUCUGGUGACCCCGUGAAUUCUGCUGUAUAUCUC [A35G A57C U58C U60C C62U],0.53
2,UAACAGGGGGCCACAGCAGAAGCGUUCACGUCGCGGCCCCUGUCAGAUUCUGGUGGAUCUGCGAUUUCUGCUGUAUAUCUC [A35G A56G A65U],0.84
3,UAACAGGGGGCCACAGCAGAAGCGUUCACGUCGCGGCCCCUGUCAGAUUCUGGUGAAUCUGCGGAUUCUGCAGUAUAUCUC [A35G A64G U72A],1.34
4,UAACAGGGGGCCACAGCAGAAGCGUUCACGUCGCGGCCCCUGUCAGAUUCUGGUGGAACUGCGAAUUCAGCUAUAUAUCUC [A35G A56G U58A U69A G73A],0.66
5,UAACAGGGGGCCACAGCAGAAGCGUUCACGUCGCGGCCCCUGUCAGUUUCUGGUGAAUCUGCGGGUCUUGCUGUAUAUCUC [A35G A47U A64G A65G U67C C68U],0.14
6,UAACAGGGGGCCACAGCAGAAGCGUUCACGUCGCGGCCCCUGUCAGAUUCUGGUGUAUCUGCGAAUCCUGUUGUAUAUCUC [A35G A56U U67C C71U],0.66
7,UAACAGGGGGCCACAGCAGAAGCGUUCACGUCGCGGCCCCUGUCAGGUUCUGGUGAAUCUGCGAAUUCUGCAGUAUAUCUC [A35G A47G U72A],1.03
8,UAACAGGGGGCCACAGCAGAAGCGUUCACGUCGCGGCCCCUGUCAGGUUCUGGUGAAUCUGCGAAUUCUGCGGUAUAUCUC [A35G A47G U72G],1.25
9,UAACAGGGGGCCACAGCAGAAGCGUUCACGUCGCGGCCCCUGUCAGAUUCUGGUGGAUCUGCGAAUUCUGCCGUAUAUCUC [A35G A56G U72C],1.22
10,UAACAGGGGGCCACAGCAGAAGCGUUCACGUCGCGGCCCCUGUCAGAUUCUGGUGAUUCAGCGAAUUCUGCUGUAUAUCUC [A35G A57U U60A],0.5
11,UAACAGGGGGCCACAGCAGAAGCGUUCACGUCGCGGCCCCUGUCAGAUUCUGGUGAUCCUGCGAAUUCUGCUGUAUACCUC [A35G A57U U58C U78C],0.71
12,UAACAGGGGGCCACAGCAGAAGCGUUCACGUCGCGGCCCCUGUCAGAUUCUGGUGGAGCUGCGAAUUCUGCUGUAUAUCUC [A35G A56G U58G],1.04
13,UAACAGGGGGCCACAGCAGAAGCGUUCACGUCGCGGCCCCUGUCAGAUUCUGGUGGACCUGCGAAUUCUGCUGUAUAUCUC [A35G A56G U58C],0.73
14,UAACAGGGGGCCACAGCAGAAGCGUUCACGUCGCGGCCCCUGUCAGAUUCUGGUGUGUCUGCGGAUUCUGCUGUAUAUCUC [A35G A56U A57G A64G],1.07
15,UAACAGGGGGCCACAGCAGAAGCGUUCACGUCGCGGCCCCUGUCAGAUUCUGGUGAAUCUGCGGAUUCUGCUGUAUGUCUC [A35G A64G A77G],1.27
16,UAACAGGGGGCCACAGCAGAAGCGUUCACGUCGCGGCCCCUGUCAGUUUCUGGUGAAUCUGCGAGUUCUGCUGUAUAUCUC [A35G A47U A65G],0.63
17,UAACAGGGGGCCACAGCAGAAGCGUUCACGUCGCGGCCCCUGUCAGAUUCUGGUGGAUCUGCGAAUUCGGCUGCAUAUCUC [A35G A56G U69G U74C],1.25
